The source of these data is publication PMC3316498.

Chains of the proteins cited; added tags and fusions are not shown. Lines headed by an entry give the natural chain unless they say otherwise; changes in a name come on top. A line that says so, or that is headed by a name, gives the form on record, which may keep a tag or linker. Residues count along the entry.
UniProt Q8I5I8: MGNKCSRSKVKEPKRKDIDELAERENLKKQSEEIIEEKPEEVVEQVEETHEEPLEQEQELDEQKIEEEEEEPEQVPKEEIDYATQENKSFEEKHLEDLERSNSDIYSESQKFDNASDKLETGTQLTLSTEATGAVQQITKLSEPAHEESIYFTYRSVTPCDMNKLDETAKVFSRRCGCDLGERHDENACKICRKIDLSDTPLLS
N-terminal 29 residues of GAP45 fused to GFP (N-GAP45): residues 1-29 of Q8I5I8
UniProt Q8IDR3: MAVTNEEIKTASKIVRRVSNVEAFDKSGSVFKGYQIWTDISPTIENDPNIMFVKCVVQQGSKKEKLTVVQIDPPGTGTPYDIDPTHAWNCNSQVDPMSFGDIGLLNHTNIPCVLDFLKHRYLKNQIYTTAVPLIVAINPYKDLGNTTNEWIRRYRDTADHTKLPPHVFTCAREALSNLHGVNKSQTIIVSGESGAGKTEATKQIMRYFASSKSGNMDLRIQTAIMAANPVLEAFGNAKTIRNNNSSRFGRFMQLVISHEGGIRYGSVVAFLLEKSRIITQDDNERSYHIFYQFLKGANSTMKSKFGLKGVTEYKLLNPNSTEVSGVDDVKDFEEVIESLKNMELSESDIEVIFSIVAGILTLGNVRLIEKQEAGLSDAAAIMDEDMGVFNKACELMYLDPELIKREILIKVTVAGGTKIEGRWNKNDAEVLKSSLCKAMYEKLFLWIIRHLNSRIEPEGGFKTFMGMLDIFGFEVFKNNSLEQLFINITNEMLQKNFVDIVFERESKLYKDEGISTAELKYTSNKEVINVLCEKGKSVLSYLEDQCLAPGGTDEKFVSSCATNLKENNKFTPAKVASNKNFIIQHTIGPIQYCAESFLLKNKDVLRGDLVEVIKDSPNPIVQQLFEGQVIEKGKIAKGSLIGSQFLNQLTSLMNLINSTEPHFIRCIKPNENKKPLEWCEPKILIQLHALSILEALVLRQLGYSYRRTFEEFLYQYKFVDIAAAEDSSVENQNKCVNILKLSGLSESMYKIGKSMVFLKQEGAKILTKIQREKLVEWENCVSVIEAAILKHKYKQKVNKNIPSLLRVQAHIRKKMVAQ
UniProt Q8I4W8: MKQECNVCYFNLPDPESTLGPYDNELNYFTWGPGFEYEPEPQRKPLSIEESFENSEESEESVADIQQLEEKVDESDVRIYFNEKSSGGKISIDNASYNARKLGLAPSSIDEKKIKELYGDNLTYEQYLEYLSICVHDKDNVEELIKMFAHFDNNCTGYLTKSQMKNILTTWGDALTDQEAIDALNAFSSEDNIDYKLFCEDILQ

These are yes or no findings as the source states them, for the method shown. Binding seen in cells or lysates may run through a third protein. Some binding calls cover weakened binding; strength is not graded here.

Assay [1] addresses N-terminal 29 residues of GAP45 fused to GFP (N-GAP45) (P. falciparum) (UniProt Q8I5I8). Description: co-IP; GFP-fusion proteins precipitated from schizont lysates (10 mM Tris-HCl pH 7.5, 150 mM NaCl, 0.5 mM EDTA, 0.5% NP-40, diluted with buffer lacking NP-40) with GFP-Trap beads, 1 h at RT; Western blotting with antibodies to GFP, GAP45, GAP50, MTIP, MyoA, CDPK1.
For assay [2], the target named is full-length GAP45 in which GFP was inserted into the ORF just after the N-terminal 29 amino acids (FL-GAP45) (P. falciparum) (UniProt Q8I5I8). Described as above.

For the substance “myosin A (MyoA, a type XIV myosin) (from UniProt Q8IDR3 1-818)”, the binding entry is “no binding” in assay [1] and “binds” in assay [2].

“myosin tail domain interacting protein (MTIP) (from UniProt Q8I4W8 1-204)”: the binding entry in assay [1] is on record as “no binding”; in assay [2], “binds”. As for “native GAP45 (from UniProt Q8I5I8 1-204)”, the binding result in assay [2] is “no binding”.
